PubChem BioAssay (Tox21)
Several values for one entry are separate records, joined by “and”; a condition that tells them apart may be missing. Equal values may be shown once. Inconclusive means that the source gave no clear call. Such entries were picked first, then a sample of the others. Potencies of inconclusive entries are doubtful fits and often do not repeat. Activity calls are given as the source filed them. The call rests on the fitted dose curve; in most records, active means well fitted cell-killing curve with a large enough effect in the repeat runs; inconclusive means weak or mixed curves, or effect the other way; inactive means flat fitted curve, though single readings scatter.
Potency means the concentration at half of the fitted maximal effect; tags describe the fitted curve by direction and shape.

Test: cAMP Responsive Elements (CRE) small molecule antagonists, cell-based qHTS assay: qHTS cell viability counter screen (AID 2060913); further: nearly all actives have a fitted effect of over 40% in size
Details: CRE-bla HEK293T viability, CellTiter-Glo luminescence, 5 h; series mostly up to 92.4 µM
In short: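 CRE-bla HEK293T cells (2,000/well, 18 h) given compound plus NKH477 0.25 uM final for 3 h at 37C; viability counter-screen by CellTiter-Glo luminescence in same wells after 30 min.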
With `CC(O)C(=O)[O][Hg][c]1ccccc1` (configuration not stated) the Potency was active: 12.2 µM.
For `O=[N+]([O-])c1ccc(F)c([N+](=O)[O-])c1`, the Potency was inconclusive: 24.6 µM [cytotoxic, partial curve, poor fit].
For `N#CCCl`, the Potency was inconclusive: 71.5 µM [cytotoxic, single point].
For `CCCCOCN(C(=O)CCl)c1c(CC)cccc1CC`, the Potency was inconclusive: 48.6 µM [cytotoxic, partial curve, poor fit].
For `CCN(CC)CCO`, the Potency was inconclusive: 14.2 µM [cytotoxic, single point].
In the case of `O=S(=O)(NS(=O)(=O)C(F)(F)F)C(F)(F)F`, the Potency is reported as inconclusive: 30.5 µM [cytotoxic, partial curve].
In the case of `Cc1cc(N=Nc2ccccc2C)ccc1N`, the Potency is reported as inconclusive: 68.6 µM [cytotoxic, single point] and inconclusive: 68.6 µM [cytotoxic, partial curve, poor fit].
For `N#Cc1c(-c2ccc(Cl)cc2)[nH]c(C(F)(F)F)c1Br`, the Potency was inconclusive: 0.545 µM [cytotoxic, full curve].
With `CCCOCC(=Nc1ccc(Cl)cc1C(F)(F)F)n1ccnc1` the Potency was inconclusive: 0.0034 µM [rising, full curve, poor fit].
In the case of `CCCSP(=O)(OCC)SCCC`, the Potency is reported as inconclusive: 63.3 µM [cytotoxic, partial curve, poor fit].
With `c1cc2c(c(N3CCNCC3)c1)OCCO2` the Potency was inconclusive: 0.0007 µM.
For `NC1CCC(CC2CCC(N)CC2)CC1` (configuration not stated), the Potency was inconclusive: 0.601 µM [cytotoxic, single point].
